The text below walks through data of patent US20120190616A1 (IPSEN PHARMA S A S, published 2012).

The labels stand for the following.
B1: (Arg^49, Ile^59)hIGF-1([…])-OH (ligand)
chain: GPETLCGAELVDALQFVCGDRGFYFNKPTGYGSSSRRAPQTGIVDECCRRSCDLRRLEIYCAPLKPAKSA
notes: synthetic; free acid C-terminus; disulfides […], 47-52, […]
B2: (Asp^59)hIGF-1([…])-OH (ligand)
chain: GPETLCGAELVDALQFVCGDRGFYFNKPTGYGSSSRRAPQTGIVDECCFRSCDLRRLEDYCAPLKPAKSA
notes: as for B1
B3: (Asn^59, D-Ala^70)hIGF-1([…])-OH (ligand)
chain: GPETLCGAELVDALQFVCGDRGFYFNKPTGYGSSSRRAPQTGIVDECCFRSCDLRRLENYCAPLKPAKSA
modifications: D-Ala at 70
notes: synthetic; free acid C-terminus
B4: (Asn^59, D-Lys^68)hIGF-1([…])-OH (ligand)
chain: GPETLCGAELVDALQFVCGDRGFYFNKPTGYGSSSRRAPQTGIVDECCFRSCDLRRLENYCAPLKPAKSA
modifications: D-Lys at 68
notes: as for B3
B5: (Asn^59, D-Ala^69)hIGF-1([…])-OH (ligand)
chain: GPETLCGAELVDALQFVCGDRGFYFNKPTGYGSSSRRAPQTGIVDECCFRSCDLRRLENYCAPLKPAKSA
modifications: D-Ala at 67 (paragraph 170 prints D-Ala^69; the claims print D-Ala^67; the expected mass 7631.6 fits position 67)
notes: also called (Asn^59, D-Ala^67)hIGF-1([…])-OH
B6: (Leu^49,59)hIGF-1([…])-OH (ligand)
chain: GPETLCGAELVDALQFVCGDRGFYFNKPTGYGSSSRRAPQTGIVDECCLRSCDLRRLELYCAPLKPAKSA
notes: as for B1
B7: (Thr^51, Leu^59)hIGF-1([…])-OH (ligand)
chain: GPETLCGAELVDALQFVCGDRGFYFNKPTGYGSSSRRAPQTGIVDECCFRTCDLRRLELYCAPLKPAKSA
notes: as for B1
B8: (Arg^53, Ile^59)hIGF-1([…])-OH (ligand)
chain: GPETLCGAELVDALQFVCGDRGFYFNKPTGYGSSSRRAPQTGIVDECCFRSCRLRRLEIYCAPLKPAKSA
notes: as for B1
B9: (Asn^59, D-Pro^63)hIGF-1([…])-OH (ligand)
chain: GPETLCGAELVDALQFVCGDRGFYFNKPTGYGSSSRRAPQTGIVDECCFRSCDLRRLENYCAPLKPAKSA
modifications: D-Pro at 63
notes: as for B3
B10: (Asn^59,62)hIGF-1([…])-OH (ligand)
chain: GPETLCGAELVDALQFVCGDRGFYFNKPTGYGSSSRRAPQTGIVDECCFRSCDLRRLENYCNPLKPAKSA
notes: as for B1
B11: (Ser^53, Asn^59)hIGF-1([…])-OH (ligand)
chain: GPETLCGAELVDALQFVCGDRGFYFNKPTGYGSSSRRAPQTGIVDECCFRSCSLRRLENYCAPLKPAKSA
notes: as for B1
B12: (Ser^59)hIGF-1([…])-OH (ligand)
chain: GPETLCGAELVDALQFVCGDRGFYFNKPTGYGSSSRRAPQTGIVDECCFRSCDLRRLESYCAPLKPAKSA
notes: as for B1
B13: (Gln^56, Asn^59)hIGF-1([…])-OH (ligand)
chain: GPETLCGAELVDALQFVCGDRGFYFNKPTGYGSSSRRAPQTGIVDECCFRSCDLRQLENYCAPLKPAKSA
notes: as for B1
B14: (Arg^59)hIGF-1([…])-OH (ligand)
chain: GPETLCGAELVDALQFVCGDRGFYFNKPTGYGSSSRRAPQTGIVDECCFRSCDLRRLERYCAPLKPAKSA
notes: as for B1
B15: (Thr^49, Asn^59)hIGF-1([…])-OH (ligand)
chain: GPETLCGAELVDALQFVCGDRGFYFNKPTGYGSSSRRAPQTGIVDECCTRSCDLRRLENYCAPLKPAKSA
notes: as for B1
B16: (Trp^59)hIGF-1([…])-OH (ligand)
chain: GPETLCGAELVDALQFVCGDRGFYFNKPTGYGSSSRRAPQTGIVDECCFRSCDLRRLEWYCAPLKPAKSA
notes: as for B1
B17: (Asn^59, D-Ser^69)hIGF-1([…])-OH (ligand)
chain: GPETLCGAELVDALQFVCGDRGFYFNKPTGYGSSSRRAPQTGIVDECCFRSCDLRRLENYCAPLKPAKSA
modifications: D-Ser at 69
notes: as for B3
B18: (Asn^59, D-Leu^64)hIGF-1([…])-OH (ligand)
chain: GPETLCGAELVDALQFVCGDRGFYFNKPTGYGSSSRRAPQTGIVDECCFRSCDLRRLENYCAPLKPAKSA
modifications: D-Leu at 64
notes: as for B3
B19: (Glu^59)hIGF-1([…])-OH (ligand)
chain: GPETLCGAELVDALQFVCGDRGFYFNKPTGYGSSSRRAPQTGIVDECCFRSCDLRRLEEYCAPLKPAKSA
notes: as for B1
B20: (Ser^50, Asn^59)hIGF-1([…])-OH (ligand)
chain: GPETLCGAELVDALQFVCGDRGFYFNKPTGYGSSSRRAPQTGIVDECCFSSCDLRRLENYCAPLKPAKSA
notes: as for B1
B21: (Leu^59, Thr^69)hIGF-1([…])-OH (ligand)
chain: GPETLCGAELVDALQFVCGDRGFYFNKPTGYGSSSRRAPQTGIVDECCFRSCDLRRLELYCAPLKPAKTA
notes: as for B1
B22: (Arg^51, Ile^59)hIGF-1([…])-OH (ligand)
chain: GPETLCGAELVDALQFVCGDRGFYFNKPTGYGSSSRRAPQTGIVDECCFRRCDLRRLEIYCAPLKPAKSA
notes: as for B1
B23: (Asn^59, D-Lys^65)hIGF-1([…])-OH (ligand)
chain: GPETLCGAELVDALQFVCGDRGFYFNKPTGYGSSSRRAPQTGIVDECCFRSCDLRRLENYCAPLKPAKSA
modifications: D-Lys at 65
notes: as for B3
B24: (Tyr^55, Asn^59)hIGF-1([…])-OH (ligand)
chain: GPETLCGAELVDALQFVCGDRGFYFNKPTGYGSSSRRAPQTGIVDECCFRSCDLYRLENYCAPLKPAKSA
notes: as for B1
B25: (Asn^59, Phe^60)hIGF-1([…])-OH (ligand)
chain: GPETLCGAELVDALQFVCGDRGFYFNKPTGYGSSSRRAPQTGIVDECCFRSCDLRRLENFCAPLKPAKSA
notes: as for B1
B26: (Tyr^59)hIGF-1([…])-OH (ligand)
chain: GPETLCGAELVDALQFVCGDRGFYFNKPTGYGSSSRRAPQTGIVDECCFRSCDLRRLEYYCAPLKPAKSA
notes: as for B1
B27: (Asn^59, D-Pro^66)hIGF-1([…])-OH (ligand)
chain: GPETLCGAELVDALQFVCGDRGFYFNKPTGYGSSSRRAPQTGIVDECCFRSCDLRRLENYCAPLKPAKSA
modifications: D-Pro at 66
notes: as for B3
B28: (Leu^59, Glu^71)hIGF-1([…])-OH (ligand)
chain: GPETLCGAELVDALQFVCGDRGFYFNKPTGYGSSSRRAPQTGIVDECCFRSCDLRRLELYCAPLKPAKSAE
notes: synthetic; one residue added at position 71; free acid C-terminus
B29: (Leu^59, Asp^71)hIGF-1([…])-OH (ligand)
chain: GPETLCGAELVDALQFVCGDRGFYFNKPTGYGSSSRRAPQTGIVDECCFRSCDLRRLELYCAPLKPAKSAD
notes: as for B28
B30: (Leu^59, Ser^71)hIGF-1([…])-OH (ligand)
chain: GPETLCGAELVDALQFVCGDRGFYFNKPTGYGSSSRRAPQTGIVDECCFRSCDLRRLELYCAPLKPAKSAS
notes: as for B28
B31: (Leu^59, Lys^71)hIGF-1([…])-OH (ligand)
chain: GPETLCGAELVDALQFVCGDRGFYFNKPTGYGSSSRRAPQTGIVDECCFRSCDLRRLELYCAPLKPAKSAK
notes: as for B28
B32: (Ser-Gly^1, Asn^59)hIGF-1([…])-OH (ligand)
chain: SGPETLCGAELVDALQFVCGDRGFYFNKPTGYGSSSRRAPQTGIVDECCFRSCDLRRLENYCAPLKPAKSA
notes: synthetic; extra Ser before Gly1; free acid C-terminus; disulfides […], 47-52, […]

For this experiment, the target named is T1, native IGF-1 receptor of human MCF-7 cells (human, UniProt P08069 31-1367).
T1 construct: whole, on cells; assayed in membranes prepared from MCF-7 cells
As to the kind of experiment: radioligand competition, [125I]IGF-1 on MCF-7 cell membranes. The protocol: The homogenates were washed twice by centrifugation (39,000 g/10 minutes) and the final pellets were resuspended in 50 mM Tris-HCl containing 2.5 mM MgCl₂ and 0.1% BSA.
Unlabeled competing test peptides were sometimes included. The final assay volume was 0.25 ml. […] The supernatant was decanted and the radioactive particles trapped in the pellet was counted by gamma spectrometry (Wallac LKB, Gaithersburg, Md., USA).
In general terms: In a radioligand displacement assay an active substance lowers the binding of a labelled ligand.
Molecule B1 yielded an IC50 of 6.31 nM.

Regarding B2, the IC50 came out at 18.5 nM. This IC50 is about 2.9-fold higher than that of the molecule before.

Molecule B3 displayed an IC50 of 0.91 nM.

B4 showed a 50% inhibitory concentration (IC50) of 1.6 nM.

Take B5: the IC50 stood at 2.77 nM.

With B6, the IC50 was 2.4 nM.

Consider B7, for which the IC50 amounted to 2.25 nM.

With B8, the concentration for half-maximal inhibition (IC50) was determined as 1.27 nM.

Turning to B9, the IC50 is 0.81 nM.

For the molecule B10, the concentration for half-maximal inhibition (IC50) was 1.85 nM. This IC50 is about 2.3-fold higher than that of the molecule before.

B11 registered an IC50 of 0.66 nM.

On to B12, for which the IC50 came to 30.6 nM.

Regarding B13, the half-maximal inhibitory concentration (IC50) worked out at 5.94 nM. This IC50 is about 5.2-fold lower than that of the molecule before.

Molecule B14 gave an IC50 of 3.49 nM.

B15 registered an IC50 of 2.9 nM.

Regarding B16, the IC50 was determined as 4.54 nM.

Molecule B17 came in with an IC50 of 1.57 nM.

For the molecule B18, the IC50 was 2.61 nM.

As to B19, the IC50 is 1.29 nM.

Molecule B20 registered a half-inhibitory concentration (IC50) of 1.25 nM.

As for B21, the half-maximal inhibitory concentration (IC50) amounted to 2.66 nM.

The molecule B22 gave an IC50 of 9.27 nM.

As for B23, the IC50 worked out at 2.77 nM.

Molecule B24 registered an IC50 of 3.62 nM.

B25 registered an IC50 of 1.47 nM. Against the preceding molecule, the IC50 is about 2.5-fold lower.

For the molecule B26, the IC50 was found to be 2.18 nM.

The molecule B27 registered an IC50 of 0.72 nM.

As to B28, the IC50 stood at 3.25 nM.

In turn, B29 had an IC50 of 13.2 nM.

With B30, the IC50 was 2.03 nM. This IC50 lies about 6.5-fold lower than the previous one.

In turn, B31 showed an IC50 of 1.95 nM.

Molecule B32 came in with an IC50 of 4.11 nM.

What is called IC50 is the concentration that gives 50% inhibition.
